Test results published in patent publication US20240294594A1 (CYTUNE PHARMA, published 2024).

B1: PD1-IL2v (other)
heavy 1: EVQLLESGGGLVQPGGSLRLSCAASGFSFSSYTMSWVRQAPGKGLEWVATISGGGRDIYYPDSVKGRFTISRDNSKNTLYLQMNSLRAEDTAVYYCVLLTGRVYFALDSWGQGTLVTVSSASTKGPSVFPLAPSSKSTSGGTAALGCLVKDYFPEPVTVSWNSGALTSGVHTFPAVLQSSGLYSLSSVVTVPSSSLGTQTYICNVNHKPSNTKVDKKV[not shown - human IgG1 Fc with changes]GGGGSGGGGSGGGGSAPASSSTKKTQLQLEHLLLDLQMILNGINNYKNPKLTRMLTAKFAMPKKATELKHLQCLEEELKPLEEVLNGAQSKNFHLRPRDLISNINVIVLELKGSETTFMCEYADETATIVEFLNRWITFAQSIISTLT
heavy 2: EVQLLESGGGLVQPGGSLRLSCAASGFSFSSYTMSWVRQAPGKGLEWVATISGGGRDIYYPDSVKGRFTISRDNSKNTLYLQMNSLRAEDTAVYYCVLLTGRVYFALDSWGQGTLVTVSSASTKGPSVFPLAPSSKSTSGGTAALGCLVKDYFPEPVTVSWNSGALTSGVHTFPAVLQSSGLYSLSSVVTVPSSSLGTQTYICNVNHKPSNTKVDKKVEPKSCDKTHTCPPCPAPEAAGGPSVFLFPPKPKDTLMISRTPEVTCVVVDVSHEDPEVKFNWYVDGVEVHNAKTKPREEQYNSTYRVVSVLTVLHQDWLNGKEYKCKVSNKALGAPIEKTISKAKGQPREPQVCTLPPSRDELTKNQVSLSCAVKGFYPSDIAVEWESNGQPENNYKTTPPVLDSDGSFFLVSKLTVDKSRWQQGNVFSCSVMHEALHNHYTQKSLSLSP
light: DIVMTQSPDSLAVSLGERATINCKASESVDTSDNSFIHWYQQKPGQSPKLLIYRSSTLESGVPDRFSGSGSGTDFTLTISSLQAEDVAVYYCQQNYDVPWTFGQGTKVEIKRTVAAPSVFIFPPSDEQLKSGTASVVCLLNNFYPREAKVQWKVDNALQSGNSQESVTEQDSKDSTYSLSSTLTLSKADYEKHKVYACEVTHQGLSSPVTKSFNRGEC
B2: PEM LE-RLI-NA x2 (other)
heavy: QVQLVQSGVEVKKPGASVKVSCKASGYTFTNYYMYWVRQAPGQGLEWMGGINPSNGGTNFNEKFKNRVTLTTDSSTTTAYMELKSLQFDDTAVYYCARRDYRFDMGFDYWGQGTTVTVSSASTKGPSVFPLAPCSRSTSESTAALGCLVKDYFPEPVTVSWNSGALTSGVHTFPAVLQSSGLYSLSSVVTVPSSSLGTKTYTCNVDHKPSNTKVDKRV[not shown - human IgG4 Fc with changes]ITCPPPMSVEHADIWVKSYSLYSRERYICNSGFKRKAGTSSLTECVLNKATNVAHWTTPSLKCIRDPALVHQRPAPPSGGSGGGGSGGGSGGGGSGGNWVNVISDLKKIEDLIQSMHIDATLYTESDVHPSCKVTAMKCFLLELQVISLESGDASIHDTVEALIILANNSLSSNAQVTESGCKECEELEEKNIKEFLQSFVHIVQMFINTS
light: EIVLTQSPATLSLSPGERATLSCRASKGVSTSGYSYLHWYQQKPGQAPRLLIYLASYLESGVPARFSGSGSGTDFTLTISSLEPEDFAVYYCQHSRDLPLTFGGGTKVEIKRTVAAPSVFIFPPSDEQLKSGTASVVCLLNNFYPREAKVQWKVDNALQSGNSQESVTEQDSKDSTYSLSSTLTLSKADYEKHKVYACEVTHQGLSSPVTKSFNRGEC
B3: PEM LE-RLI-ND x1 (other)
heavy 1: QVQLVQSGVEVKKPGASVKVSCKASGYTFTNYYMYWVRQAPGQGLEWMGGINPSNGGTNFNEKFKNRVTLTTDSSTTTAYMELKSLQFDDTAVYYCARRDYRFDMGFDYWGQGTTVTVSSASTKGPSVFPLAPCSRSTSESTAALGCLVKDYFPEPVTVSWNSGALTSGVHTFPAVLQSSGLYSLSSVVTVPSSSLGTKTYTCNVDHKPSNTKVDKRV[not shown - human IgG4 Fc with S228P L235E T366W (EU numbers)]ITCPPPMSVEHADIWVKSYSLYSRERYICNSGFKRKAGTSSLTECVLNKATNVAHWTTPSLKCIRDPALVHQRPAPPSGGSGGGGSGGGSGGGGSGGNWVNVISDLKKIEDLIQSMHIDATLYTESDVHPSCKVTAMKCFLLELQVISLESGDASIHDTVEDLIILANNSLSSNAQVTESGCKECEELEEKNIKEFLQSFVHIVQMFINTS
heavy 2: QVQLVQSGVEVKKPGASVKVSCKASGYTFTNYYMYWVRQAPGQGLEWMGGINPSNGGTNFNEKFKNRVTLTTDSSTTTAYMELKSLQFDDTAVYYCARRDYRFDMGFDYWGQGTTVTVSSASTKGPSVFPLAPCSRSTSESTAALGCLVKDYFPEPVTVSWNSGALTSGVHTFPAVLQSSGLYSLSSVVTVPSSSLGTKTYTCNVDHKPSNTKVDKRVESKYGPPCPPCPAPEFEGGPSVFLFPPKPKDTLMISRTPEVTCVVVDVSQEDPEVQFNWYVDGVEVHNAKTKPREEQFNSTYRVVSVLTVLHQDWLNGKEYKCKVSNKGLPSSIEKTISKAKGQPREPQVYTLPPSQEEMTKNQVSLSCAVKGFYPSDIAVEWESNGQPENNYKTTPPVLDSDGSFFLVSRLTVDKSRWQEGNVFSCSVMHEALHNHYTQKSLSLSLG
light: B2 light
B4: PEM LE-RLI-ND x2 (other)
heavy: QVQLVQSGVEVKKPGASVKVSCKASGYTFTNYYMYWVRQAPGQGLEWMGGINPSNGGTNFNEKFKNRVTLTTDSSTTTAYMELKSLQFDDTAVYYCARRDYRFDMGFDYWGQGTTVTVSSASTKGPSVFPLAPCSRSTSESTAALGCLVKDYFPEPVTVSWNSGALTSGVHTFPAVLQSSGLYSLSSVVTVPSSSLGTKTYTCNVDHKPSNTKVDKRV[not shown - human IgG4 Fc with changes]ITCPPPMSVEHADIWVKSYSLYSRERYICNSGFKRKAGTSSLTECVLNKATNVAHWTTPSLKCIRDPALVHQRPAPPSGGSGGGGSGGGSGGGGSGGNWVNVISDLKKIEDLIQSMHIDATLYTESDVHPSCKVTAMKCFLLELQVISLESGDASIHDTVEDLIILANNSLSSNAQVTESGCKECEELEEKNIKEFLQSFVHIVQMFINTS
light: B2 light
B5: PEM LE-RLI-NQD x2 (other)
heavy: QVQLVQSGVEVKKPGASVKVSCKASGYTFTNYYMYWVRQAPGQGLEWMGGINPSNGGTNFNEKFKNRVTLTTDSSTTTAYMELKSLQFDDTAVYYCARRDYRFDMGFDYWGQGTTVTVSSASTKGPSVFPLAPCSRSTSESTAALGCLVKDYFPEPVTVSWNSGALTSGVHTFPAVLQSSGLYSLSSVVTVPSSSLGTKTYTCNVDHKPSNTKVDKRV[not shown - human IgG4 Fc with changes]ITCPPPMSVEHADIWVKSYSLYSRERYICNSGFKRKAGTSSLTECVLNKATNVAHWTTPSLKCIRDPALVHQRPAPPSGGSGGGGSGGGSGGGGSGGNWVNVISDLKKIEDLIQSMHIDATLYTESNVHPSCKVTAMKCFLLELQVISLESGDASIHDTVQDLIILANNSLSSNAQVTESGCKECEELEEKNIKEFLQSFVHIVQMFINTS
light: B2 light

Legend:
[1] = molecular target: PD-1 (on PD-1 Effector Cells of the Promega PD-1/PD-L1 Blockade Bioassay) (UniProt Q15116 25-288, limits assumed); experiment: cell-based or functional assay
[2] = molecular target: T1, IL-2/IL-15Rβγ (on cells) (UniProt P14784 27-551; P31785 23-369, limits assumed); experiment: cell-based or functional assay
T1 sequence (looked up) 1: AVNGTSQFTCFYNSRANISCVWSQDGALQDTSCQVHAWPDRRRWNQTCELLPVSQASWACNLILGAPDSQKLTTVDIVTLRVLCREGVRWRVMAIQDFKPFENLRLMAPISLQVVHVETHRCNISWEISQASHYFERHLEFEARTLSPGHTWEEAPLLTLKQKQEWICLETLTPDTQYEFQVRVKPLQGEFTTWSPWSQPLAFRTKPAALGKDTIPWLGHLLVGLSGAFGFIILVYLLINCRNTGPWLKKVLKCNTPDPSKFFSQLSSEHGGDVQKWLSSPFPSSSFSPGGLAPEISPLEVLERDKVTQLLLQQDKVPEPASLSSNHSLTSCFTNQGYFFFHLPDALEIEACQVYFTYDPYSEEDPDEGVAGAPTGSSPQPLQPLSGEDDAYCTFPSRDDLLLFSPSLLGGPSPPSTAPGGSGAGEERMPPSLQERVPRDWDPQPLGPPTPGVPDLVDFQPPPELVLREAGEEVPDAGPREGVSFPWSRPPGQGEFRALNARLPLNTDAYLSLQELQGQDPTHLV
T1 sequence (looked up) 2: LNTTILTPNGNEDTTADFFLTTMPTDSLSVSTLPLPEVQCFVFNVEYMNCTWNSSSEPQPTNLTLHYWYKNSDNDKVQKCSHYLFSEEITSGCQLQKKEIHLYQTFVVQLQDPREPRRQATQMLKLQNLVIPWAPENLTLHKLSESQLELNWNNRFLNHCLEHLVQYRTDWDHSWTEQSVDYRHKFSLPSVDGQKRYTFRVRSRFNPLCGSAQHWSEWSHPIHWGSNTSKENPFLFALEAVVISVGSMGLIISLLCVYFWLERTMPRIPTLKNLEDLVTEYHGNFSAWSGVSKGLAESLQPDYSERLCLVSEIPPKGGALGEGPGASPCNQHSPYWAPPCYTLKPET

Chain of UniProt Q15116 (Q15116 25-288 limits assumed): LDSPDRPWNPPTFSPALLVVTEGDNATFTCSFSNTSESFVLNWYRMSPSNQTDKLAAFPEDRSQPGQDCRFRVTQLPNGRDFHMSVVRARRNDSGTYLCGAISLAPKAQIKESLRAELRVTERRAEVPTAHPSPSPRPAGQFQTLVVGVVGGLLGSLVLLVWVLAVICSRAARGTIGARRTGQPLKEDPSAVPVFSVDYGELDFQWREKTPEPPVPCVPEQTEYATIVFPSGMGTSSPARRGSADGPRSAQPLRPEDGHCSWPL

Binder	EC50 [pM], Promega blocking assay [1]	Relative potency vs Keytruda, Promega blocking assay [1]	EC50 kit225 cells pM [2]	Relative potency/kit225 cells [2]
B1	4570 pM	38.6%		
B2			10700 pM	0.47%
B3			9240 pM	0.55%
B4			5270 pM	0.97%
B5			117000 pM	0.044%
